Paper PMC6919601, “Identification of Plasmodium dipeptidyl aminopeptidase allosteric inhibitors by high throughput screening” (PLoS ONE, 2019)
Out of some 110,000 compounds screened, about 230 (0.21%) showed an effect of 50% or more. Some of the results follow.

Target: DPAP1 (Plasmodium falciparum, UniProt Q8IIJ9)
Test: primary screen, percent inhibition; read by cleavage of a fluorogenic dipeptide substrate; higher = more effect of the substance
Design: species or system P. falciparum D10 trophozoite lysates; single well
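Also: 30 min substrate incubation versus DMSO and 10 µM JCP410 controls.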

Sequence of DPAP1 (Q8IIJ9 whole entry, looked up): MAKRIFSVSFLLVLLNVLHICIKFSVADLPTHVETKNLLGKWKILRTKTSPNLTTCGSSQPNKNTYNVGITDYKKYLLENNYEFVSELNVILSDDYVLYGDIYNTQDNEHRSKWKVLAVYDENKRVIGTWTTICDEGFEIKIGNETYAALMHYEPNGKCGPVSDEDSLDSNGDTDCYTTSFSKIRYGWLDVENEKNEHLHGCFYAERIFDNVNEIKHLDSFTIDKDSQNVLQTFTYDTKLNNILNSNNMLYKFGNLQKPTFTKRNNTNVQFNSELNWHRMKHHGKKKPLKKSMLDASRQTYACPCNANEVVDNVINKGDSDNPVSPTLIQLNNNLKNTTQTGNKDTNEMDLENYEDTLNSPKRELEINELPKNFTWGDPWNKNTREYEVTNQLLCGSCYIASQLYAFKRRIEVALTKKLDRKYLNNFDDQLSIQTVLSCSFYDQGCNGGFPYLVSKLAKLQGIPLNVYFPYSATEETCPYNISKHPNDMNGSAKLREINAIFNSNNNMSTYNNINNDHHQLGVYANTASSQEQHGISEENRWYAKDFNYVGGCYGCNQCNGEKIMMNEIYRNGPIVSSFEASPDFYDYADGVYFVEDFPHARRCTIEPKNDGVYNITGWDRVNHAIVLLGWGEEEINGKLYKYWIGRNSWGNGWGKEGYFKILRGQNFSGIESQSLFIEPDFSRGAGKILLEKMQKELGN

SMILES	% Inhibition @ 10 uM [%]
O=c1cccc2n1CC1CC2CN(S(=O)(=O)c2ccc3nc(O)ccc3c2)C1 (centres unmarked)	-0.0401
Cc1ccc(NS(=O)(=O)c2c(C)nc3sccn3c2=O)nc1	-2.55
CCOc1ccc(-c2nonc2NC(=O)c2ccccc2C)cc1OCC	-1.47
COc1ccc(C(=O)C2=C(O)C(=O)N(CCc3ccccc3)C2c2ccc(F)cc2)cc1 (centres unmarked)	-7.98
CCOc1cc(C2CC(=O)Nc3nc(SCc4cccc(C)c4)nc(O)c32)ccc1O (centres unmarked)	2.25
COc1ccccc1NC(=O)c1c(Cl)c(C)nn1C	-6.36
CN(C)CCNC(=O)C1CCN(c2nn3cc(-c4ccc(F)cc4)nc3s2)CC1	-5.54
CC1=C(C(=O)Nc2ccccc2)C(c2cccs2)C(C#N)=C(SCC(=O)c2ccc(-c3ccccc3)cc2)N1 (centres unmarked)	-0.582
CC(NC(=O)C(=O)NCc1ccc(F)cc1)C(c1cccs1)N1CCOCC1 (centres unmarked)	-1.08
CC12CN3CC(C)(CN(C1)C3c1ccccn1)C2=O (centres unmarked)	3.27
COc1ccccc1CNC(=O)C1CCCN(S(=O)(=O)c2cccc3nonc23)C1 (centres unmarked)	-5.88
C=CCOc1ccc(CNCc2cccs2)cc1	0.324
O=C(NCc1ccc(F)cc1)c1cnc2ccc(S(=O)(=O)N3CCOCC3)cc2c1O	1.88
O=C(Nc1ccc(Cl)cc1C(=O)NCCCCO)c1ccc(Cl)cc1Cl	-1.82
CCN1CCC2(CC1)OC(=O)C(C)=C2C(=O)NCCC1=CCCCC1	-4.38
COc1ccc(C2OCC(C)(C)CO2)cc1Br	-1.61
O=S(=O)(c1ccc(Cl)nc1)N1CCCCC1	3.93
COc1ccc(C(=O)Nc2nc(-c3ccc(S(=O)(=O)N4CCCCCC4)cc3)cs2)cc1	1.88
C/C(=C\S(=O)(=O)c1ccc(C)cc1)NCc1ccccc1	-0.984
CCCn1c2ccccc2c2cnn(CC(=O)N(CCN(C)C)Cc3ccco3)c(=O)c21	4.39
CCO/C(O)=C/C1=NC(C)(C)Cc2cc(OC)c(O)cc21	0.273
COc1ccc(C2C(C#N)=C(N)Oc3cc(C)n(Cc4ccccn4)c(=O)c32)c(OC)c1OC (centres unmarked)	-4.78
CCOC(=O)C1=CN(C)C=C(C(=O)OCC)C1c1ccc(OC)c(OC)c1	6.48
CCOC(=O)C1=C(C)N(CCOC)C(=O)/C1=C\c1ccc(C(=O)OC)cc1	1.81
Clc1cccc(CN2CCN(c3cccc(Cl)c3)CC2)c1	-0.294

SMILES	% Inhibition @ 10 uM [%]
CCc1ccc(S(=O)(=O)c2nnn3c2nc(N)c2cc(Cl)ccc23)cc1	0.291
Cc1nnc(NC(=O)COc2ccc(C(C)C)c(C)c2)s1	0.484
CC(C)CCNC(=O)C1CCCN(S(=O)(=O)N2CC(C)CC(C)C2)C1 (centres unmarked)	0.514
CC(=O)c1ccc(N2CCN(C/C=C/c3ccccc3)CC2)cc1	1.9
COc1cc(OC)cc(C(=O)Nc2nc(-c3nnn(-c4ccc(C)c(Cl)c4)c3C)ns2)c1	-5.67
O=C(Nc1nc(COc2ccccc2)cs1)C1CCC1	4.31
CN1CCN(C(=O)CCc2ccc(S(=O)(=O)NC3CCCCC3)cc2)CC1	3.53
COc1ccc(CCn2c(C)c3c(C)nnc(C)c3c2C)cc1OC	-2.75
O=C(c1ccco1)N1CCC(c2c[nH]c3ccccc23)(c2c[nH]c3ccccc23)CC1	-0.637
COCCn1c(=N)c(C(=O)NCCN2CCOCC2)cc2c(=O)n3cc(C)ccc3nc21	-5.14
CCCCNC(=O)Cn1c(=S)[nH]c2c([nH]c3ccc(OC)cc32)c1=O	1.15
O=C(/C=C/c1ccc(F)cc1)N1CCN(c2ccc(Cl)cc2)CC1	3.76
COc1cc(OC)c(NC(=O)c2ccc([N+](=O)[O-])cc2)cc1Cl	4.89
COc1cc(C2SCC(C(=O)O)N2C(C)=O)cc(OC)c1O (centres unmarked)	1.27
Cc1cc(/C=C2\C(=N)N3N=C(S(C)(=O)=O)SC3=NC2=O)c(C)n1Cc1ccccc1	3.53
CC1CCCN(C(=O)C2CCC(C/N=c3/c(N4CCCCC4)c(O)c3=O)CC2)C1 (centres unmarked)	2.84
Cc1ccc(N2C(=O)CCSC23C(=O)Nc2ccccc23)cc1 (centres unmarked)	4.03
CCN1C(=O)C(O)(CC(=O)c2ccc(OC)cc2OC)c2ccccc21 (centres unmarked)	-3.39
COc1cc(CN2CCN(Cc3ccccc3F)CC2)cc(OC)c1OC	2.39
Cc1cccc(C)c1OCC(O)CN1CCc2ccccc2C1 (centres unmarked)	-0.564
COCCNC(=O)Cn1nc(C)n2cccc2c1=O	-10.2
CCCc1nc2c3ccccc3nc(O)n2n1	2.97
O=C(O)CCCNCc1ccc(Cl)cc1	-0.256
CC1(C)CC2=Nc3nc(SCc4ccccc4F)nn3C(c3ccncc3)C2=C(O)C1 (centres unmarked)	0.457
Cc1ccc(C)c(NC(=O)c2sc(Cl)nc2C)c1	3.24

SMILES	% Inhibition @ 10 uM [%]
COc1ccc(CNC(=O)CCc2c(C)c3ccc(O)c(C)c3oc2=O)cc1OC	-2.57
CC(C)(C)NC(=O)Cn1c(=O)[nH]c2ccsc2c1=O	-3.23
OCC1CCCN(Cc2ccc3ccccc3c2)C1 (centres unmarked)	-3.27
CCO/C(O)=C1\C(CC)=NC2=C(C(=O)CCC2)C1c1ccc(Cl)cc1Cl (centres unmarked)	1.13
COc1cc([C@@H]2[C@H]3CN(C)CC=C3C(C#N)=C(N)C2(C#N)C#N)ccc1OC(C)C	21.8
CN(CCNC(=O)c1ccc(CS(=O)(=O)Cc2ccc(Cl)cc2)o1)Cc1ccccc1	0.387
CCn1cc(C2=NOC(C(=O)NCCN3CCOCC3)C2)c(C)n1 (centres unmarked)	4.95
CN(C)c1ccc(/C=C/CN2CC=C(c3ccc(F)cc3)CC2)cc1	1.57
O=C(O)C(O)(c1ccccc1)C(O)c1ccccc1 (centres unmarked)	2.36
O=C(c1cccnc1)N1CCN(C(c2ccccc2)c2ccccc2)CC1	3.44
Cc1ccc2c(c1)-c1onc(C(=O)N(C)Cc3ccco3)c1CO2	4.58
CCOC(=O)c1nnn(-c2nonc2N)c1CN1CCCC(C)C1 (centres unmarked)	-3.64
CC1CCCCC1NC(=O)NCc1noc2ccccc12 (centres unmarked)	6.84
CCc1cccc(O[C@@H]2O[C@@H]3COC(C)(C)O[C@H]3[C@H](O)[C@H]2NC(C)=O)c1	0.673
O=c1c2c(Br)c3c(=O)n(CCO)c(=O)c3c(Br)c2c(=O)n1CCO	21.6
CC(=O)c1c(S)nc(-c2ccccc2)nc1NCc1ccccc1	5.35
COc1ccc(CCNC(=O)Cn2nc(C)n3c(cc4sccc43)c2=O)c(OC)c1	6.46
Cc1ccc(/C=C/C2=NC(=C\c3cccs3)/C(=O)O2)cc1	-1.29
COc1ccc(C2CC(=O)N(CCCN(C)C)C2)cc1 (centres unmarked)	2.41
CCN(CC)CCCNC(=O)Cn1ncc2c3ccccc3n(Cc3ccccc3C)c2c1=O	6.46
c1ccc(-c2nc(CN3CCN(c4ccccc4)CC3)cs2)cc1	3.8
CN1CCC(N(C)Cc2ccc(F)c(F)c2)CC1	-4.5
CCCc1nc2c3ccccc3nc(-n3nc(C)cc3C)n2n1	-2.41
C/C(=N\OCc1nc2c3cnn(Cc4ccccc4)c3ncn2n1)c1ccccc1	4.54
COc1ccc(/C=C/C(=O)NC(=O)c2ccccc2OCC(=O)c2ccc(Br)cc2)cc1	-6.69

SMILES	% Inhibition @ 10 uM [%]
CCc1c(-c2ccccc2)n(Cc2ccccn2)c2nc3c(c(=O)n(C)c(=O)n3C)n12	-2.67
FC(F)(F)c1cccc(CSc2nc3ccncc3[nH]2)c1	3.3
CC1CCN(C(=O)Nc2cn(C)c(=O)c3ccccc23)CC1	4.44
Cc1cc(C)c(C(N)=O)c(Nc2ccc(F)cc2)n1	-0.736
CCOc1cc(C)c(C(C)C)cc1S(=O)(=O)NCc1ccccn1	-5.45
COc1cc(C2C(C#N)=C(N)Oc3[nH]nc(C(C)(C)C)c32)ccc1OC(C)C (centres unmarked)	-4.33
CC(C)(C)c1ccc(-c2nnc3sc(COc4ccc(F)cc4)nn23)cc1	6.49
O=C(Cn1c(=O)n(Cc2ccccc2)c(=O)c2sc3ccccc3c21)N1CCCC1	2.04
O=C(CN1C(=O)c2ccccc2S1(=O)=O)Nc1cccc(C(F)(F)F)c1	-10.2
Cc1cccc(NC(=O)Nc2cn(CC(C)C)c(=O)c3ccccc23)n1	-5.75
COc1ccc(OCC(=O)N2CCN(S(=O)(=O)Cc3ccccc3)CC2)cc1	-1.26
CCCn1cnc2cc(NC(=O)c3cccs3)ccc21	1.83
N=c1c(C(=O)NCCc2ccccc2)cc2c(=O)n3ccccc3nc2n1C1CCCC1	5.17
O=C(NC1CCCC1)c1cnn2c(C(F)(F)F)cc(-c3ccco3)nc12	-0.553
CCCN(CCC)Cc1nc(O)c2c(n1)-c1ccccc1CC21CCCCC1	4.17
Cc1ccc(Cn2c(N3CCN(CCO)CC3)nc3c2c(=O)n(C)c(=O)n3C)cc1	-1.4
Cc1ccccc1NS(=O)(=O)c1ccc(F)cc1	3.47
CC1CCCC(OC(=O)Nc2ccccc2)C1 (centres unmarked)	-4.52
CC(C)(C)Nc1nc2ccccc2nc1-c1ccncc1	4.57
CCOC(=O)c1cnc(SCc2ccccn2)nc1N	-1.78
COC(=O)Nc1ccccc1C(=O)NCCc1ccccc1	-0.891
C1=CCN(Cc2nc3ccccc3[nH]2)CC1	-2.75
CC1=C(C(=O)OCC(C)C)C(c2cccc(Cl)c2)NC(=O)N1 (centres unmarked)	1.27
